B1: LINE1-mini (parent)
chain: GGCAGAGCUCAACACAGCGUGGCAAAGUGGCUGUGGCUAGACUGCC

Read counts are not given, so values of variants with three or more changes are uncertain.

The text below walks through data of the RNAGym collection of RNA variant scans (doi:10.7554/elife.90254).

Variants of B1 are the subject of this data set. Briefly: self-cleavage, relative activity (ratio to wild type); higher = more cleavage; in vitro, sequencing; the parent is a self-cleaving ribozyme.
As for C10U G35U G36U C42A G44A, the self-cleavage amounted to 0.01.

In the case of C10A A26U C37U, the self-cleavage was determined as 0.03.

C8U G30U G40U: the self-cleavage is 0.02.

Take A4G A12C U32C U38A: the self-cleavage is 0.02.

With C8U G19C G22A G27U, the self-cleavage is 0.16.

Regarding C3U C10G G19U C31U G40C C42U, the self-cleavage was 0.

On to A6U A14G A16C A25C, for which the self-cleavage was 0.11.

Turning to A6G C8A C18G C23U C31U C45A, the self-cleavage stood at 0.08.

Turning to C8A A26U G30U, the self-cleavage is 0.35.

As to C8A A24C A25C, the self-cleavage amounted to 0.14.

G5A A6U A24U: the self-cleavage was found to be 0.1.

Turning to G17C G21U C46U, the self-cleavage is 0.51.

Consider G7C C13U G22C A41C, for which the self-cleavage turned out to be 0.04.

For G7A A26C U28A G35A C45A, the self-cleavage is 0.15.

With G22A U34G C42A, the self-cleavage amounted to 0.03.

Regarding G19C U32C A39G, the self-cleavage was found to be 0.01.

On to G7C U38A A39C G40A, for which the self-cleavage was 0.11.

As to G2U C3A C13A U34G C46A, the self-cleavage turned out to be 0.04.

Regarding G1U U9C A14U G21U G33A, the self-cleavage stood at 0.04.

Consider G5C C8A U28C U32G C45G, for which the self-cleavage is 0.09.

Turning to G5C G29U G30U G33A, the self-cleavage is 0.05.

As to G2C G21U C46A, the self-cleavage is 0.12.

For the variant U9G A26C G30U C31U, the self-cleavage was 0.01.

G5U G7C C15U A39C: the self-cleavage was found to be 0.19.

Turning to C10G G40A A41G, the self-cleavage came to 0.

A11U A24C C31G U34C A41U: the self-cleavage was found to be 0.02.

Turning to G5A G29A C37A C46A, the self-cleavage is 0.13.

As to A11U G22U G29A G35A, the self-cleavage was 0.03.

Take A4G A6C G33C G40A: the self-cleavage is 0.09.

Regarding U20A U28A U38G, the self-cleavage turned out to be 0.03.

For the variant C10A G22U A24C A25G A26U U38G U43A, the self-cleavage worked out at 0.01.

With C23U A25C G29A C42A, the self-cleavage was 0.05.

G2A A12C A25C G35C A39G G40U G44C: the self-cleavage was 0.05.

With C3U A6U U9A G19U G21U G22A U32A C37A C46A, the self-cleavage came out at 0.42.

On to A14G C18A G27U C37A, for which the self-cleavage is 0.03.

A24C G29C G44U: the self-cleavage was 0.16.

G29U C31G U34A A39C: the self-cleavage worked out at 0.03.

C8A G21A C23U: the self-cleavage was 0.12.

In the case of C8G A11C G35U A39C, the self-cleavage is 0.02.

C3A G19C C23A: the self-cleavage is 0.04.

As for G27A G33C G36A A41C U43G, the self-cleavage was 0.01.

For G1C C31G A41U, the self-cleavage was found to be 0.

In the case of A6G C18U C23A C45A, the self-cleavage is 0.07.

For the variant U9A A11U C15U G30C C45A, the self-cleavage was found to be 0.02.

As to A12G G27A G29U G30A C42G, the self-cleavage was 0.01.

With G2C C8U G29C G40U, the self-cleavage amounted to 0.07.

As for G5U C8U U9A G19C C23A U32C, the self-cleavage was 0.06.

For G2C A41U U43G C45A, the self-cleavage was found to be 0.09.

Turning to U20A U28C A39C, the self-cleavage is 0.01.

Turning to C8U G22A G40A, the self-cleavage is 0.34.

Turning to G19A A41U C45U C46U, the self-cleavage came out at 0.39.

For the variant C13U U38C A39G C46U, the self-cleavage was 0.08.

As to G2U G17A C31A, the self-cleavage was 0.07.

Turning to A6G A12U A25G, the self-cleavage amounted to 0.02.

For A16G U32G A39U, the self-cleavage stood at 0.05.

As to A11G G19A C23U, the self-cleavage was found to be 0.05.

For A16C G33U G40C U43C, the self-cleavage was 0.01.

In the case of U20G G40A C46A, the self-cleavage is 0.02.

For the variant A4C C31G A39U, the self-cleavage is 0.07.

In the case of C8U A16G C23A, the self-cleavage was 0.1.

On to C10U A41U G44U, for which the self-cleavage stood at 0.05.

Consider U28G G30A A39G, for which the self-cleavage was 0.02.

For the variant A4U U38A C46A, the self-cleavage amounted to 0.02.

Turning to C8U A11C G44A, the self-cleavage stood at 0.02.

Consider A24U A26U G27C C45G, for which the self-cleavage was found to be 0.07.

In the case of A6U G17C C23A G30A U38A, the self-cleavage is 0.42.

In the case of C3A U34C G44A, the self-cleavage is 0.42.

On to C3U G17U U28C, for which the self-cleavage turned out to be 0.09.

Regarding A26U G27C C46U, the self-cleavage was determined as 0.21.

Consider C3U G5C G27U G30C, for which the self-cleavage worked out at 0.21.

On to A11C C18G G35U, for which the self-cleavage is 0.06.

With A4G G5A A24U G29U, the self-cleavage came to 0.03.

On to G5C A12U G17C, for which the self-cleavage turned out to be 0.14.

As to C10A U28A A41C C42U C45U, the self-cleavage was determined as 0.01.

On to A11G C15U U34A, for which the self-cleavage came to 0.03.

C23U A24G U43G: the self-cleavage is 0.

With U20A G30A G33U C37U, the self-cleavage came out at 0.02.

On to U20C U28C G40A C42A, for which the self-cleavage is 0.66.

With C23A U32G G33C, the self-cleavage turned out to be 0.05.

Regarding C8A A11U G36A C45G, the self-cleavage stood at 0.01.

Turning to G5A G36C C45U, the self-cleavage was 0.02.

For the variant G22A A24U C31A A41U, the self-cleavage worked out at 0.17.

Regarding C8U C13A A24U, the self-cleavage came out at 0.03.

As to A14C A26U G30C C31A G36C, the self-cleavage came out at 0.02.

On to G1U G5A U32A, for which the self-cleavage was determined as 0.01.

On to G5U G33U U34C, for which the self-cleavage worked out at 0.05.

Take A11C G17A A39C: the self-cleavage amounted to 0.02.

Take G1A C8G A16C C31U A39U U43A: the self-cleavage is 0.06.

As to C15G G27A G33U C37U, the self-cleavage was 0.03.

For the variant G5U A14U G21U, the self-cleavage came to 0.01.

Consider C15U C23A G35A, for which the self-cleavage turned out to be 0.11.

In the case of C8U C13A C45A, the self-cleavage was 0.34.

In the case of G5U C8U C13U A24C A41G C45A, the self-cleavage turned out to be 0.18.

Take C8U C15G G21U U28A C31U A41G: the self-cleavage is 0.04.

Turning to G22C A26U C31A G33A G36U, the self-cleavage turned out to be 0.08.

For A14G G35A C45A, the self-cleavage came to 0.08.

Consider G7U C10G G29U, for which the self-cleavage worked out at 0.04.

Take A12U C13U C23G A24U U28C C46G: the self-cleavage came to 0.19.

Regarding G21A G29C U34A C46A, the self-cleavage was determined as 0.14.

On to G5A G21A G27A G30C, for which the self-cleavage stood at 0.15.

As for C3G G7U C13U A25C G27U, the self-cleavage came to 0.09.

Consider C15U G17U A41G, for which the self-cleavage was found to be 0.

Take G17C C23U A39U: the self-cleavage amounted to 0.56.

On to A11C C15U C46G, for which the self-cleavage was 0.01.

Regarding A11C G27A G30C G44A, the self-cleavage is 0.07.

For the variant G1C A11U A41U, the self-cleavage came out at 0.02.

Turning to A14G C15A C23A G40C, the self-cleavage is 0.02.

Take G2U A24U G35A U43G G44A C46U: the self-cleavage stood at 0.12.

As to C3G A4G A16G, the self-cleavage is 0.01.

C10U G17U A25C G27A C31A: the self-cleavage worked out at 0.53.

With G1U A4C G35A C37A, the self-cleavage came out at 0.02.

As for G1C A12C A26G, the self-cleavage stood at 0.

As to A4C C10A G22C G36A A39C, the self-cleavage turned out to be 0.02.

Take A12U C23G U28A U32G C45U: the self-cleavage was 0.03.

On to A25G G33C U38A C46A, for which the self-cleavage stood at 0.03.

For A4U C23A G35A, the self-cleavage turned out to be 0.04.

On to A11U U20C A26U, for which the self-cleavage came out at 0.06.

In the case of U9C A16C U28C U43A C46U, the self-cleavage came out at 0.

With G2A C15G G36U, the self-cleavage worked out at 0.02.

With G7C C8A U32C G36U C46A, the self-cleavage came to 0.57.

Take G2A A4G C15G G17A A39G G44A: the self-cleavage turned out to be 0.

For G1C C15A G29U, the self-cleavage came to 0.04.

On to C23G C31U G36U U38A, for which the self-cleavage is 0.03.

Consider C10U A16C U34C A41U, for which the self-cleavage turned out to be 0.11.

With C10U G40A C46U, the self-cleavage came out at 0.02.

For C8G A25U C45U, the self-cleavage was found to be 0.02.

Consider G7A G22A G29A G33U G35A G40A, for which the self-cleavage worked out at 0.16.

In the case of A4U C10A A26U G29C, the self-cleavage was 0.02.

As for C10A C18G U32G U38A, the self-cleavage was found to be 0.01.

Turning to G2U G35C A39C, the self-cleavage came to 0.07.

As for C3U A6C G30A G36C, the self-cleavage was 0.1.

G2C A14G G17U G35A C37A A41G: the self-cleavage was 0.01.

A4G A12C G36A C46A: the self-cleavage came to 0.12.

As for C10U A16G G29A U43C, the self-cleavage stood at 0.02.

With G7C C15U G29U, the self-cleavage was 0.08.

On to G1U G7U A25U U34C, for which the self-cleavage turned out to be 0.07.

For C3A G36C C42U, the self-cleavage was determined as 0.69.

Consider G22A G27C C42A, for which the self-cleavage amounted to 0.14.

For the variant U34C C42A C46G, the self-cleavage worked out at 0.05.

As for C10G A14G G17U, the self-cleavage is 0.01.

As to G2U C8G C15G G17A C42A U43C, the self-cleavage was 0.01.

With C42U G44U C45U, the self-cleavage was found to be 0.04.

In the case of G5U G17C C46G, the self-cleavage is 0.03.

With A11U C13G A39U C42A, the self-cleavage worked out at 0.03.

For the variant A11G G35U C45G, the self-cleavage was 0.05.

As for C8U G30U C45U, the self-cleavage is 0.61.

Turning to G19C G22C G35A G44A, the self-cleavage came to 0.07.

On to C10U G29U G40A C45G, for which the self-cleavage came to 0.05.

For C8G A16G C31G, the self-cleavage was determined as 0.02.

As for G2A A24C A25C G33A, the self-cleavage was determined as 0.1.

For A14G G19U A24C, the self-cleavage came to 0.04.

For the variant A6C C15G C18A, the self-cleavage is 0.06.

For the variant C10U G22A U34A C37G U43C, the self-cleavage stood at 0.04.

In the case of G21U C31A G40C, the self-cleavage was 0.

Consider A11G G19A G30U, for which the self-cleavage stood at 0.01.

Consider G5A U34G C46A, for which the self-cleavage is 0.04.

Take G2A G5U G21C G22A G27C: the self-cleavage stood at 0.38.

A4G C8A C10U A16G G33C G36C C45U: the self-cleavage was 0.01.

On to A14C A24U A41G, for which the self-cleavage worked out at 0.07.

Turning to G17A A41C C45A C46U, the self-cleavage was determined as 0.02.

U9G A14G U38C: the self-cleavage came to 0.03.

On to G1A G22U G35C C42G C46A, for which the self-cleavage came out at 0.02.

In the case of C18U U34C C46G, the self-cleavage is 0.03.

For the variant A16U C18U G27U U28A, the self-cleavage was found to be 0.09.

In the case of G2C C10U G21U G27C, the self-cleavage came out at 0.04.

Consider G1C C15U A25U A26U G29C C42U, for which the self-cleavage turned out to be 0.02.

Consider G5U G29U U32G C37A, for which the self-cleavage was 0.04.
